# The list shows a part of the results. The list includes weakly bound sequences.
# Target: MaxL homodimer (UniProt P61244)
# Test: universal protein-binding microarray (PBM)
# Conditions: PBS-based mixture, 10 nM His-tagged protein dimer, 2% milk, 200 ng/uL BSA, 50 ng/uL salmon testes DNA, 0.02% TX-100; detection with Alexa 488 anti-His …; high values mean tight binding; most listed sequences are background and not binding sites; double strand, one strand shown
# Sequence of UniProt P61244 (P61244 whole entry): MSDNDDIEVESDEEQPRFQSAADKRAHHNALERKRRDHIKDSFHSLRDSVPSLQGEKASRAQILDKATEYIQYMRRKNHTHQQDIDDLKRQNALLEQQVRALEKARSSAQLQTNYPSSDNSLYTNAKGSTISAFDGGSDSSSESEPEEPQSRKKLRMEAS
row,Sequence,binding signal (normalized occupancy)
1,AGCTACAC,0.0732
2,AGCAGGCA,0.076
3,AGGACTGG,0.073
4,AAGCTTCC,0.068
5,GAACCTAC,0.0739
6,ACCGGGTG,0.0789
7,ACCTTGAC,0.0773
8,AGAGTCTA,0.0689
9,CATCGGGC,0.0726
10,CGGAGTTC,0.0674
11,CTGAGCCA,0.0705
12,CCTCTGGA,0.0723
13,TCGAAAGA,0.0725
14,ACCCAGAC,0.0678
15,AAAAGCGA,0.0668
16,AAATGCTA,0.0773
17,ATTACTGC,0.0709
18,AGCAAGCA,0.0713
19,GTGCCGCA,0.0837
20,ACGAGTCT,0.0791
21,CAGAACGA,0.0776
22,AAACATGT,0.0983
23,CCCCTCAC,0.0803
24,ATTTCTTC,0.0749
25,ACGGAGAA,0.0698

row,Sequence,binding signal (normalized occupancy)
1,GCCTCCAC,0.0787
2,GAGAAACC,0.0763
3,AGCTGTCC,0.0691
4,CTCACCCC,0.0824
5,AGCCATGG,0.0832
6,CATGGAGC,0.081
7,GCAGTATA,0.0755
8,CAGACAGG,0.0724
9,AGAGCATC,0.0755
10,AAAGGCGG,0.0698
11,ACAACGCC,0.0737
12,GAGGCATC,0.0704
13,ATCGTGGA,0.084
14,ATCGGCTG,0.0688
15,CAGTAGCG,0.0653
16,AAGCAGCC,0.0714
17,AAACTCGT,0.0762
18,GGATACCA,0.0777
19,AATCACAG,0.0732
20,GGATGGAA,0.0785
21,ATGCGAGG,0.0841
22,ACGCAGCC,0.0737
23,CGTGGTCC,0.0896
24,GATACGCA,0.0746
25,AATTTCAC,0.0751

row,Sequence,binding signal (normalized occupancy)
1,AACGAGGC,0.0809
2,GCTTGTAC,0.0767
3,CTGTGGGA,0.0765
4,CTGCCAGA,0.0702
5,TGATGGCA,0.08
6,AGACGTGC,0.0761
7,ACGGGATC,0.0775
8,GCTCTTTA,0.0666
9,ACGACAAC,0.0759
10,CACATGGG,0.166
11,AGGTCTTG,0.0734
12,ATTTCACG,0.0776
13,GCCCTACA,0.0744
14,GCGACTTA,0.0716
15,TTAGTGAA,0.0767
16,CAAGCGCG,0.0759
17,CGGTACTC,0.07
18,CAGCCCGA,0.0683
19,ATAGGGAT,0.0812
20,CCCAGGCG,0.0679
21,CTACCCCA,0.0788
22,CTTTTTCC,0.0727
23,GAATCCAA,0.0757
24,AAACATTA,0.0779
25,AGCCAAGC,0.0683

row,Sequence,binding signal (normalized occupancy)
1,ATTAACTC,0.0796
2,CCGACCGC,0.0735
3,GTACTACA,0.0864
4,CATCCAAA,0.0785
5,AGGCCTTG,0.0684
6,GGAATCGA,0.076
7,ATTTGAAA,0.0746
8,ATCGCTAG,0.0737
9,ATCTCACC,0.0821
10,AATCACTA,0.0729
11,CCAAGCGC,0.0732
12,AACAGTAG,0.0715
13,GACGGGCC,0.0688
14,ACTAGGGC,0.0695
15,TCCAGGAA,0.0728
16,GCTATTTA,0.0794
17,GGCTTAGA,0.0745
18,GTGAGACA,0.081
19,CTGACGCA,0.0694
20,GTACAGAC,0.071
21,CATATCAA,0.0794
22,CGGGAAAA,0.0693
23,AGGTAGTA,0.0777
24,CCGGGTAC,0.068
25,AGTCTTCA,0.072

row,Sequence,binding signal (normalized occupancy)
1,CACGGGCC,0.0713
2,TAGTGGGA,0.0758
3,CAGCGTCG,0.0687
4,CTGGAGAA,0.0729
5,CCTGGCAA,0.0698
6,AGTCCCAG,0.065
7,CAGTGCAA,0.0734
8,AAGTGCCA,0.0704
9,AGCGGCGC,0.0631
10,CCACGCGG,0.32
11,AGCCCGCG,0.0664
12,GTTTAACA,0.0767
13,CAGCACAG,0.0777
14,GTACCAGA,0.0726
15,AAGGATTG,0.0755
16,AGCACAAG,0.0764
17,CCAGAGCC,0.0683
18,CGTAAGGC,0.0753
19,ATCCTTAG,0.0782
20,AAACATGA,0.0907
21,AATGCAGC,0.0741
22,TAATTTAA,0.0709
23,AATCAATC,0.0773
24,CCCAGACC,0.0702
25,ATTTTGCC,0.0766

row,Sequence,binding signal (normalized occupancy)
1,TATGGACA,0.0795
2,GCTTATAA,0.0807
3,ATCCTGTA,0.0755
4,AGTAGTCC,0.0718
5,ACTACAAG,0.0738
6,GGTATATA,0.0866
7,ATCACTAA,0.0741
8,CATTCGCA,0.078
9,CAGTAATA,0.0775
10,ACAAGTGA,0.0764
11,ATCTAGGA,0.0759
12,TTCCTCAA,0.0727
13,GGGTGGGA,0.085
14,AGGGCTAC,0.0722
15,GGTTGTCA,0.0781
16,ATCTCAAA,0.0786
17,CCGAAACG,0.0717
18,ACTCTGTA,0.0726
19,CACTAATG,0.0758
20,CAGCTGGA,0.0742
21,AGGCTTTA,0.0758
22,ATTATAGA,0.0796
23,AATCTTGG,0.076
24,AGCGTTGG,0.0764
25,CCACGATA,0.0924

row,Sequence,binding signal (normalized occupancy)
1,CAACTGCA,0.0708
2,ACCACGTG,0.773
3,CGACGAAC,0.0697
4,CAAACTGG,0.0684
5,GAAATTGC,0.0727
6,ATATTAGG,0.0776
7,AGCGCACC,0.0767
8,GTTCGTGA,0.0731
9,ACAAGGGA,0.0765
10,AAATTGGG,0.0753
11,GAATAATC,0.0788
12,AAAGCTTT,0.0728
13,AGACAATA,0.0786
14,TGGCCCAA,0.0666
15,GTTACCAA,0.0749
16,CTGCAACA,0.0801
17,AGCAGAAA,0.0744
18,ATCACTAC,0.0763
19,AAGCGAGT,0.0719
20,CGAGACGA,0.0694
21,AGGCGCAA,0.0697
22,GGTAAACC,0.0718
